Data published in PubChem BioAssay AID488969 (Vanderbilt High Throughput Screening Facility, 2010).
Whole data set: some 110,000 compounds, median “z-score” near -0.1, cut for the highest 2% near 2. The list shows a part of the results.

Molecular target: Metabotropic glutamate receptor 8 (Rattus norvegicus) (UniProt P70579)
Assay: rat mGluR8 modulators via GIRK flux, primary screen, cell-based, thallium flux, HTS (AID 488969)
Details: HEK293 rat mGluR8, GIRK (G protein-gated inwardly rectifying potassium channel) thallium flux, FluoZin2; at 10 µM; stronger effect = higher value; submaximal glutamate (EC20) added with thallium

UniProt P70579, sequence (P70579 whole entry, looked up): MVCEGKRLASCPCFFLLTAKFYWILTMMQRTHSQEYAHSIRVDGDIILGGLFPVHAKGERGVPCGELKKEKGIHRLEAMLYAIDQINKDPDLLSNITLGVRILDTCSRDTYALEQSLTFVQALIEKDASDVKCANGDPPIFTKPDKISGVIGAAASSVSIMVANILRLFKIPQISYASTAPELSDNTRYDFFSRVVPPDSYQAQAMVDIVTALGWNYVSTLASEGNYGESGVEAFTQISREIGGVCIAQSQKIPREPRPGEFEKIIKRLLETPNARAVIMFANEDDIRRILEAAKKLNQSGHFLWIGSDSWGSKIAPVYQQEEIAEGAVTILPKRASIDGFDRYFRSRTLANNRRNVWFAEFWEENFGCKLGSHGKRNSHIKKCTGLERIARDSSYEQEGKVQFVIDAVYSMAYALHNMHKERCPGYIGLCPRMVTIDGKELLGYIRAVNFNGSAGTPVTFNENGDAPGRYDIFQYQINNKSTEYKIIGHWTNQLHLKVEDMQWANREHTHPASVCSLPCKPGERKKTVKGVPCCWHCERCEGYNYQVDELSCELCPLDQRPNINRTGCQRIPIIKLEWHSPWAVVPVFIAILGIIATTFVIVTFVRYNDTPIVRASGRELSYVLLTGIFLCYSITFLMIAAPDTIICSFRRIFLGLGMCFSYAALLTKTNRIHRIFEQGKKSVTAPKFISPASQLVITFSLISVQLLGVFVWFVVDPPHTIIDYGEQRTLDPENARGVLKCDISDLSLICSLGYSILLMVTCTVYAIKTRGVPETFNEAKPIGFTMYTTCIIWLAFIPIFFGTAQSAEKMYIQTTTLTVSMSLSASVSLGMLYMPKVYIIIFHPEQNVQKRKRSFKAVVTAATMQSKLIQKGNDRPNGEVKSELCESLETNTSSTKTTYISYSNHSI

| SMILES | z-score |
| --- | --- |
| COc1cc(Br)cc(C=Nc2cccc(C(F)(F)F)c2)c1O | -0.62 |
| O=[N+]([O-])c1ccc(N2CCN(S(=O)(=O)c3ccc4ccccc4c3)CC2)cc1NCC1CCCO1 (configuration not stated) | -0.161 |
| NNS(=O)(=O)c1ccc(Cc2ncc(C(F)(F)F)cc2Cl)s1 | -0.119 |
| CC1Cc2nc(SCC(=O)N3CCCc4ccccc43)n(C)c(=O)c2S1 (configuration not stated) | -1 |
| Oc1c(Br)cc(Br)cc1/C=N/c1nc2c(s1)CCCC2 | -0.401 |
| CC12CCC(C(=O)NCc3ccc4c(c3)OCO4)(C(=O)C1=O)C2(C)C (configuration not stated) | 1.52 |
| O=C(Nc1ccc2nc3n(c(=O)c2c1)CCCC3)c1cc([N+](=O)[O-])ccc1F | -0.759 |
| CC1(C)Cc2c(ccc3ccccc23)C(c2cc3ccccc3oc2=O)=N1 | -0.0815 |
| CC1(c2ccccc2)CC(c2ccccc2)=Nc2nonc2N1 (configuration not stated) | -0.776 |
| CC1CCN(C(=O)C(Cc2ccccc2)NS(=O)(=O)c2ccc3c(c2)oc(=O)n3C)CC1 (configuration not stated) | -0.0196 |
| COc1ccc(NC(NC(=O)c2ccc(OC)cc2)C(Cl)(Cl)Cl)cc1 (configuration not stated) | -0.373 |
| COc1cc2c(cc1OC)C(=O)CC(C)S2 (configuration not stated) | -0.119 |
| Cc1ccc2cc(C(c3nnnn3C3CCCC3)N(Cc3ccccc3)Cc3ccco3)c(=O)[nH]c2c1 (configuration not stated) | -0.293 |
| CC(C)c1ccc2[nH]c(O)c(N=NC(=S)NCCc3ccccc3)c2c1 | 0.396 |
| CCn1c(SCC(=O)NC(C)c2ccccc2)nc2ccccc21 (configuration not stated) | -0.23 |
| c1csc(C2Nc3ccccc3-c3nc4ccccc4n32)c1 (configuration not stated) | -0.511 |
| CC(=O)c1cccc(NC(=O)c2cc3nc(C)cc(C)n3n2)c1 | 0.0482 |
| O=C(CCCN1C(=O)c2ccccc2C1=O)NC1CCCCCC1 | -0.15 |
| Nc1c(-c2ccccc2)c(CN2CCOCC2)nn1-c1ccccc1 | 0.911 |
| COc1ccc(NC(=O)c2nc[nH]c2C(=O)Nc2ccccc2C)cc1 | 0.48 |
| CCCn1nc(CC(=O)O)c2ccccc2c1=O | -0.0719 |
| CCOc1cc(OCC)cc(C(=O)O)c1 | 0.121 |
| CC(C)(C)OC(=O)NCCc1nnc(SCC(=O)Nc2cccc(Cl)c2)o1 | 0.346 |
| NC(=O)C1CCN(CC(=O)N2c3ccccc3CCc3ccccc32)CC1 | -0.147 |
| Cc1ccc2nc(SCC(=O)N(CC(C)C)c3c(N)n(CC(C)C)c(=O)[nH]c3=O)[nH]c2c1 | -0.249 |
| Cc1cc(N2CC(C(=O)NCc3cccs3)CC2=O)ccc1C(C)C (configuration not stated) | -0.0647 |

| SMILES | z-score |
| --- | --- |
| O=C(N/N=C/c1cn(-c2ccccc2)nc1-c1ccc(F)cc1)c1ccc(Br)o1 | 0.601 |
| Cn1nc(C(=O)N2CCN(S(=O)(=O)/C=C/c3ccccc3)CC2)c2ccccc2c1=O | 0.121 |
| Cc1ccc(S(=O)(=O)/N=C(\CN2CCCCC2)N2CCOCC2)cc1 | -0.155 |
| COC(=O)c1ccc(COc2ncnc3c(Cl)cc(Cl)cc23)o1 | -0.688 |
| C/C(=N\NC(=O)c1cccc(Cl)c1)c1cccc(NC(=O)C(C)C)c1 | -0.374 |
| COc1ccc(N2C(=O)[C@@H]3[C@H](C2=O)[C@H](C(=O)c2ccc(OC(C)=O)cc2)N2N=CC=C[C@@H]32)cc1 | -0.805 |
| Cc1cc(NC(=O)c2c(Cl)cnn2C)no1 | 0.146 |
| COc1ccc(OC)c(C2C(C(N)=O)=C(C)Nc3nc(CCCO)nn32)c1 (configuration not stated) | 0.624 |
| O=C(c1ccccn1)N(Cc1ccco1)C1(C(=O)NC2CCCC2)CCCCC1 | 0.246 |
| Nc1nnc(CCS(=O)(=O)c2ccc(Cl)cc2)s1 | -0.123 |
| CCCCn1c(SCC(=O)Nc2sc3c(c2C(N)=O)CCC3)nnc1-c1ccccc1 | -0.917 |
| O=c1cc(O)c2c(=O)n(C3CCCCC3)c3ccccc3c2o1 | 1.04 |
| CCOC(=O)C1CCN(c2cc(=O)n(-c3ccccc3Cl)c(=O)[nH]2)CC1 | -0.238 |
| COc1ccc(CN(C(=O)c2cccs2)C(C(=O)NC2CCCCC2)c2ccc3ncccc3c2)cc1 (configuration not stated) | -2.48 |
| COc1ccc(CNc2nc3ccccc3n2Cc2ccccc2)cc1OC | -0.482 |
| CCCC(C)NC(=O)/C=C/c1cccc([N+](=O)[O-])c1 (configuration not stated) | -0.0971 |
| CC1CCN(S(=O)(=O)c2ccc3c(c2)oc(=O)n3CC(=O)NCc2ccc3c(c2)OCO3)CC1 | -0.0434 |
| CCN1CCCC1CNC(=O)Cn1cccc1C(=O)c1ccccc1C (configuration not stated) | -0.748 |
| COc1ccc(OC)c(Nc2nc(N)nc(-c3cc4ccccc4o3)n2)c1 | 0.223 |
| CC(=O)c1cn(CC(=O)Nc2ccc(C)cc2)c2ccccc12 | -0.235 |
| O=C(/C=N/O)Nc1ccccc1 | -0.00573 |
| O=C(NCc1ccc(F)cc1)C1CCCN1C(=O)NCc1ccccc1 (configuration not stated) | -0.471 |
| CC1=C(C)CC(C(=O)c2ccc(C)cc2)C(C(=O)O)C1 (configuration not stated) | 0.0846 |
| CCc1nc2c(c(=O)[nH]1)C1(CCCC1)Cc1ccccc1-2 | -0.276 |
| CCCC(=O)NC(Nc1cccc(C(F)(F)F)c1)C(Cl)(Cl)Cl (configuration not stated) | -0.917 |
| COc1cc2[nH]c(=O)n(CCCCCC(=O)NCCc3c[nH]c4ccccc34)c(=O)c2cc1OC | -0.0973 |
